In article PMC4336329 (PLoS ONE, 2015):
The whole screen tested about 310,000 compounds, of which about 2,200 (0.71%) showed an effect of 50% or more. The effect is printed as a negative number. This is one part of the list.

Each molecule was assayed against human ether-à-go-go-related gene (hERG) potassium channel (human, UniProt Q12809) (assay: primary screen, population patch clamp on CHO cells stably expressing hERG).
Sequence of human ether-à-go-go-related gene (hERG) potassium channel (Q12809 whole entry, looked up): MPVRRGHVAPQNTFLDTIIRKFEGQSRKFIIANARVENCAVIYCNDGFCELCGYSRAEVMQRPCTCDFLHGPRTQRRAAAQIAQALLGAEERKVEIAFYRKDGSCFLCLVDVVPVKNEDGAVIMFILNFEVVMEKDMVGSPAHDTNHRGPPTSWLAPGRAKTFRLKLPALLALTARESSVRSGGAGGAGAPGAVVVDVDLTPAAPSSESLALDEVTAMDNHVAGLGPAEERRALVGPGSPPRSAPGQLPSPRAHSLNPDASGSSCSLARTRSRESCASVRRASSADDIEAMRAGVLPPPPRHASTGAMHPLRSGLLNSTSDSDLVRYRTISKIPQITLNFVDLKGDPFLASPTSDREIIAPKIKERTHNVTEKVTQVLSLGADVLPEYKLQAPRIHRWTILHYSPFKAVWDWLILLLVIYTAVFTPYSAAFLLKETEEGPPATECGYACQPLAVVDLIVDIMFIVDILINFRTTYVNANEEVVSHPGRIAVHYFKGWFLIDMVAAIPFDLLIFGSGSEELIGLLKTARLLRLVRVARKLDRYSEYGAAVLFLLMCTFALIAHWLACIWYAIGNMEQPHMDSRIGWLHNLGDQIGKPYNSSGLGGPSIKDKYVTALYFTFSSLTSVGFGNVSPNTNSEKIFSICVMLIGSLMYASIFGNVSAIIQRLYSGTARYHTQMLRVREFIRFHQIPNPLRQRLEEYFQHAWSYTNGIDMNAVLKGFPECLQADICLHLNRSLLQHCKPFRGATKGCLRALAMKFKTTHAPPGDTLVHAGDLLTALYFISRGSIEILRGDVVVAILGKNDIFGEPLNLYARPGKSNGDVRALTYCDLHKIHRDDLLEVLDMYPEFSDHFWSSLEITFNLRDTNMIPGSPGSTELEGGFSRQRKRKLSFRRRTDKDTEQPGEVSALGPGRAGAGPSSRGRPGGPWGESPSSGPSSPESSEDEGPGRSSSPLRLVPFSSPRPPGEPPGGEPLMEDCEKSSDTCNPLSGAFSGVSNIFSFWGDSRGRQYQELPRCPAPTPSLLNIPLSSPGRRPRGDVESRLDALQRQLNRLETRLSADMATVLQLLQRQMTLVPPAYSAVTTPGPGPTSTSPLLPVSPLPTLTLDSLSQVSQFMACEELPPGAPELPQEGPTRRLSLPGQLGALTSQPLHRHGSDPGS

| SMILES | hERG current change (%, negative = inhibition) at 1uM [%] |
| --- | --- |
| O=C(CNCc1ccc(F)cc1)Nc1ccccc1[N+](=O)[O-] | 4.53 |
| CC1=C(C(=O)OCc2ccccc2)C(c2ccc3ccccc3c2)NC(=O)N1CCCC(=O)O (stereo not shown) | -6.09 |
| Cc1nc(-c2nc(CC(=O)NNC(=O)c3ccc(Cl)cc3)cs2)cs1 | 9.31 |
| COc1ccc2[nH]c3c(=O)n(Cc4ccncc4)cnc3c2c1 | 11.3 |
| CN1CCN(CCC(=O)Nc2ccccc2Cl)CC1 | -3.43 |
| COc1ccc(-c2nnco2)cc1OC | -4.57 |
| COc1ccc(NC(=S)N(CCN(C)C)C(C)c2ccncc2)cc1Cl (stereo not shown) | -9.43 |
| N#Cc1ccc(-c2cccnc2)nc1SCC(=O)Nc1sc2c(c1C#N)CCC2 | 11.9 |
| CSc1snc(SCC(N)=O)c1C#N | 15.2 |
| COc1cc(OC)cc(C(=O)NCc2cccnc2)c1 | 7.49 |
| C=CCn1c(=S)sc2c(=O)[nH]c(C)nc21 | 1.83 |
| CCn1c(SCc2ccc(C(=O)Nc3nccs3)cc2)nnc1-c1ccc(N)cc1 | 9.7 |
| N=c1n(Cc2ccccc2)c2ccccc2n1Cc1ccccc1 | -6.88 |
| Cn1c(=O)n(C/C=C/c2ccccc2)c(=O)c2c1nc1n2CCCN1Cc1ccccc1 | 3.34 |
| CCCCn1c(SCC(=O)N2CCc3ccccc32)nnc1-c1ccncc1 | -14.6 |
| CCOc1ccc(-c2cc(CCCC(=O)NCCCOC)no2)cc1 | 2.26 |
| COc1ccc(CN(C(=O)CSc2nnc(-c3ccc(F)cc3)o2)c2ccc(F)cc2)cc1 | 1.57 |
| COc1ccc(CNC(=O)C(c2ccc(C)o2)N(Cc2cccs2)C(=O)Cc2cccs2)cc1 (stereo not shown) | 11.8 |
| O=S(=O)(Nc1nc2ccccc2nc1Nc1ccc(N2CCOCC2)cc1)c1cc(Cl)ccc1Cl | -0.472 |
| COC(=O)Cn1cnc2sc3c(c2c1=O)CCCC3 | 12.2 |
| Cc1ccccc1NC(=O)CCN1CCCCCC1 | 8.93 |
| Cc1ccc(S(=O)(=O)Nc2ccc(S(=O)(=O)Nc3ncccn3)cc2)cc1 | -0.796 |
| COCCN(C(=O)COC(=O)CCC1CCCC1)c1c(N)n(Cc2ccccc2)c(=O)[nH]c1=O | 9 |
| NC(=O)COC(=O)c1oc2ccccc2c1CSc1ccc(Cl)cc1 | 0.256 |
| Cc1ccc(NC(c2ccccc2)c2nc3ccccc3[nH]c2=O)cc1 (stereo not shown) | 9.82 |
